Patent publication US4537717A

What follows are compounds tested on Staphylococcus aureus S13E. Settings: agar dilution; 2, 5, 17, 22 median of three tests; paired values two experiments.
Type: cell-based

Point of comparison: `CCCCCCCCCCCCN[C@@H](Cc1c[nH]c2ccccc12)C(=O)N[C@@H](CC(N)=O)C(=O)N[C@@H](CC(=O)O)C(=O)N[C@@H]1C(=O)NCC(=O)N[C@@H](CCCN)C(=O)N[C@@H](CC(=O)O)C(=O)N[C@H](C)C(=O)N[C@@H](CC(=O)O)C(=O)NCC(=O)N[C@H](CO)C(=O)N[C@@H]([C@H](C)CC(=O)O)C(=O)N[C@@H](CC(=O)c2ccccc2N)C(=O)O[C@@H]1C` [Compound 22, NTrp -(n-dodecyl)-A-21978C nucleus], “MIC Staphylococcus aureus S13E” value 0.5 µg/mL (≈ 0.306 µM). Against it:
- NTrp -(n-dodecyl)-NOrn -(n-dodecyl)-A-21978C nucleus [Compound 23] — 16-fold higher, 8 µg/mL
- CCCCC=CCCCCCCCC(=O)N[C@@H](Cc1c[nH]c2ccccc12)C(=O)N[C@@H](CC(N)=O)C(=O)N[C@@H](CC(=O)O)C(=O)N[C@@H]1C(=O)NCC(=O)N[C@@H](CCCN)C(=O)N[C@@H](CC(=O)O)C(=O)N[C@H](C)C(=O)N[C@@H](CC(=O)O)C(=O)NCC(=O)N[C@H](CO)C(=O)N[C@@H]([C@H](C)CC(=O)O)C(=O)N[C@@H](CC(=O)c2ccccc2N)C(=O)O[C@@H]1C [Compound 12] — 2-fold higher, 1 µg/mL (≈ 0.597 µM)
- CCCCCCCC(=O)NCCC[C@@H]1NC(=O)CNC(=O)[C@@H](NC(=O)[C@H](CC(=O)O)NC(=O)[C@H](CC(N)=O)NC(=O)[C@H](Cc2c[nH]c3ccccc23)NC(=O)CCCCCCC)[C@@H](C)OC(=O)[C@H](CC(=O)c2ccccc2N)NC(=O)[C@H]([C@H](C)CC(=O)O)NC(=O)[C@@H](CO)NC(=O)CNC(=O)[C@H](CC(=O)O)NC(=O)[C@@H](C)NC(=O)[C@H](CC(=O)O)NC1=O [Compound 16] — 16-fold higher, 8 µg/mL (≈ 4.65 µM)
- NTrp -(n-Decanoyl)-NKyn -(n-decanoyl)-A-21978C [Compound 21] — 32-fold higher, 16 µg/mL
- CCCCCCCCCCCCCCCC(=O)N[C@@H](Cc1c[nH]c2ccccc12)C(=O)N[C@@H](CC(N)=O)C(=O)N[C@@H](CC(=O)O)C(=O)N[C@@H]1C(=O)NCC(=O)N[C@@H](CCCN)C(=O)N[C@@H](CC(=O)O)C(=O)N[C@H](C)C(=O)N[C@@H](CC(=O)O)C(=O)NCC(=O)N[C@H](CO)C(=O)N[C@@H]([C@H](C)CC(=O)O)C(=O)N[C@@H](CC(=O)c2ccccc2N)C(=O)O[C@@H]1C [Compound 10] — 2-fold higher, 1 µg/mL (≈ 0.587 µM)
- CCCCCCCCC(=O)N[C@@H](Cc1c[nH]c2ccccc12)C(=O)N[C@@H](CC(N)=O)C(=O)N[C@@H](CC(=O)O)C(=O)N[C@@H]1C(=O)NCC(=O)N[C@@H](CCCN)C(=O)N[C@@H](CC(=O)O)C(=O)N[C@H](C)C(=O)N[C@@H](CC(=O)O)C(=O)NCC(=O)N[C@H](CO)C(=O)N[C@@H]([C@H](C)CC(=O)O)C(=O)N[C@@H](CC(=O)c2ccccc2N)C(=O)O[C@@H]1C [Compound 3] — 4-fold higher, 2 µg/mL (≈ 1.24 µM)
- CCCCCCCCCCC(=O)N[C@@H](Cc1c[nH]c2ccccc12)C(=O)N[C@@H](CC(N)=O)C(=O)N[C@@H](CC(=O)O)C(=O)N[C@@H]1C(=O)NCC(=O)N[C@@H](CCCN)C(=O)N[C@@H](CC(=O)O)C(=O)N[C@H](C)C(=O)N[C@@H](CC(=O)O)C(=O)NCC(=O)N[C@H](CO)C(=O)N[C@@H]([C@H](C)CC(=O)O)C(=O)N[C@@H](CC(=O)c2ccccc2N)C(=O)O[C@@H]1C [Compound 5] — the same, 0.5 µg/mL (≈ 0.306 µM)
- CCCCCCCCCCCC(=O)N[C@@H](Cc1c[nH]c2ccccc12)C(=O)N[C@@H](CC(N)=O)C(=O)N[C@@H](CC(=O)O)C(=O)N[C@@H]1C(=O)NCC(=O)N[C@@H](CCCN)C(=O)N[C@@H](CC(=O)O)C(=O)N[C@H](C)C(=O)N[C@@H](CC(=O)O)C(=O)NCC(=O)N[C@H](CO)C(=O)N[C@@H]([C@H](C)CC(=O)O)C(=O)N[C@@H](CC(=O)c2ccccc2N)C(=O)O[C@@H]1C [Compound 6] — the same, 0.5 µg/mL (≈ 0.303 µM)
- CCCCCCCCCCCCCC(=O)N[C@@H](Cc1c[nH]c2ccccc12)C(=O)N[C@@H](CC(N)=O)C(=O)N[C@@H](CC(=O)O)C(=O)N[C@@H]1C(=O)NCC(=O)N[C@@H](CCCN)C(=O)N[C@@H](CC(=O)O)C(=O)N[C@H](C)C(=O)N[C@@H](CC(=O)O)C(=O)NCC(=O)N[C@H](CO)C(=O)N[C@@H]([C@H](C)CC(=O)O)C(=O)N[C@@H](CC(=O)c2ccccc2N)C(=O)O[C@@H]1C [Compound 8] — 2-fold higher, 1 µg/mL (≈ 0.596 µM)
- CCCCCCCCCCCCC(=O)N[C@@H](Cc1c[nH]c2ccccc12)C(=O)N[C@@H](CC(N)=O)C(=O)N[C@@H](CC(=O)O)C(=O)N[C@@H]1C(=O)NCC(=O)N[C@@H](CCCN)C(=O)N[C@@H](CC(=O)O)C(=O)N[C@H](C)C(=O)N[C@@H](CC(=O)O)C(=O)NCC(=O)N[C@H](CO)C(=O)N[C@@H]([C@H](C)CC(=O)O)C(=O)N[C@@H](CC(=O)c2ccccc2N)C(=O)O[C@@H]1C [Compound 7] — 2-fold lower, 0.25 µg/mL (≈ 0.15 µM)
- CCCCCCC(=O)N[C@@H](Cc1c[nH]c2ccccc12)C(=O)N[C@@H](CC(N)=O)C(=O)N[C@@H](CC(=O)O)C(=O)N[C@@H]1C(=O)NCC(=O)N[C@@H](CCCN)C(=O)N[C@@H](CC(=O)O)C(=O)N[C@H](C)C(=O)N[C@@H](CC(=O)O)C(=O)NCC(=O)N[C@H](CO)C(=O)N[C@@H]([C@H](C)CC(=O)O)C(=O)N[C@@H](CC(=O)c2ccccc2N)C(=O)O[C@@H]1C [Compound 1] — 16-fold higher, 8 µg/mL (≈ 5.07 µM)
- C=CCCCCCCCCC(=O)N[C@@H](Cc1c[nH]c2ccccc12)C(=O)N[C@@H](CC(N)=O)C(=O)N[C@@H](CC(=O)O)C(=O)N[C@@H]1C(=O)NCC(=O)N[C@@H](CCCN)C(=O)N[C@@H](CC(=O)O)C(=O)N[C@H](C)C(=O)N[C@@H](CC(=O)O)C(=O)NCC(=O)N[C@H](CO)C(=O)N[C@@H]([C@H](C)CC(=O)O)C(=O)N[C@@H](CC(=O)c2ccccc2N)C(=O)O[C@@H]1C [Compound 11] — 2-fold lower, 0.25 µg/mL (≈ 0.153 µM)
- CCCCCCCCCCC(=O)NCCC[C@@H]1NC(=O)CNC(=O)[C@@H](NC(=O)[C@H](CC(=O)O)NC(=O)[C@H](CC(N)=O)NC(=O)[C@H](Cc2c[nH]c3ccccc23)NC(=O)CCCCCCCCCC)[C@@H](C)OC(=O)[C@H](CC(=O)c2ccccc2N)NC(=O)[C@H]([C@H](C)CC(=O)O)NC(=O)[C@@H](CO)NC(=O)CNC(=O)[C@H](CC(=O)O)NC(=O)[C@@H](C)NC(=O)[C@H](CC(=O)O)NC1=O [Compound 17] — 2-fold higher, 1 µg/mL (≈ 0.555 µM)
- CCCCCCCC(=O)N[C@@H](Cc1c[nH]c2ccccc12)C(=O)N[C@@H](CC(N)=O)C(=O)N[C@@H](CC(=O)O)C(=O)N[C@@H]1C(=O)NCC(=O)N[C@@H](CCCN)C(=O)N[C@@H](CC(=O)O)C(=O)N[C@H](C)C(=O)N[C@@H](CC(=O)O)C(=O)NCC(=O)N[C@H](CO)C(=O)N[C@@H]([C@H](C)CC(=O)O)C(=O)N[C@@H](CC(=O)c2ccccc2N)C(=O)O[C@@H]1C [Compound 2] — 8-fold higher, 4 µg/mL (≈ 2.51 µM)
- CCCCCCCCCCCCCCC(=O)N[C@@H](Cc1c[nH]c2ccccc12)C(=O)N[C@@H](CC(N)=O)C(=O)N[C@@H](CC(=O)O)C(=O)N[C@@H]1C(=O)NCC(=O)N[C@@H](CCCN)C(=O)N[C@@H](CC(=O)O)C(=O)N[C@H](C)C(=O)N[C@@H](CC(=O)O)C(=O)NCC(=O)N[C@H](CO)C(=O)N[C@@H]([C@H](C)CC(=O)O)C(=O)N[C@@H](CC(=O)c2ccccc2N)C(=O)O[C@@H]1C [Compound 9] — 2-fold higher, 1 µg/mL (≈ 0.591 µM)

≈ marks a conversion by molar mass, not a printed value.
